# Reference: the supplement of paper PMC8728848
# The list shows a part of the results.
# B1: TLEC1 (Arabidopsis thaliana), Q9C5Q9 (protein)
# chain: MSGASSVSSICSSNVSLIPTGPQVFINFRGKDLRKGFMSFLKPALKKEKINVFIDEQEERGKYLISLFDTIGESKIALVIFSEGYCESHWCMDELVKIKEYMDQNRLIIIPIFYRLDLDVVKDLTGKFGDNFWDLVDKYQPEPKKLHKWTEALFSVCELFSLILPKHSDISDRDFVKSIVKAVKKVQKNFFQRRNGEIEYQDFSVPACKLTITMHESPNEEAVQVTVLNEFYQMKNQSPVPSYEFKFWVDLTRPKGNVFMIDARDLSIAWSEDSNHWTWLPLPNQNSNESVMEIAFLKSASWLDVAGKFDTRYLTPRTRYEVVFVVKLEYTFEWETLVKLKLDLPNTWEKPQEQSVDMFDYISDQWLDIPVGEFTTSKKNVGEISFAMYEHECQLWKSGLFVKGVTIRPKY
# What was measured:
# Test in all cases: glycan array binding signal (z-score within array); higher = stronger binding
# Conditions in all cases: glycan notation: IUPAC condensed, linker removed
# [1] = molecular target: Gal(b1-4)GlcNAc(b1-6)GalNAc
# Outline: (§1)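 Columns mapping to the same glycan were averaged after glycan names were converted to IUPAC-condensed notation. The data come from 3228 arrays in the Consortium for Functional Glycomics database, limited to those with an available protein sequence. Binding is reported as a within-array Z-score averaged across arrays of one protein sequence and across linkers.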
# [2] = molecular target: Gal(b1-4)GlcNAc(b1-6)[Gal(b1-3)]GalNAc
# Outline: as §1
# [3] = molecular target: Gal(b1-4)GlcNAc(b1-6)[Gal(b1-3)]GlcNAc
# Outline: as §1
# Gal3S(b1-3)GalNAc = molecular target: Gal3S(b1-3)GalNAc
# Outline: as §1
# Gal3S(b1-3)GlcNAc = molecular target: Gal3S(b1-3)GlcNAc
# Outline: as §1
# [4] = molecular target: Gal3S(b1-3)[Fuc(a1-4)]GlcNAc
# Outline: as §1
# Gal3S(b1-4)Glc = molecular target: Gal3S(b1-4)Glc
# Outline: as §1
# Gal3S(b1-4)Glc6S = molecular target: Gal3S(b1-4)Glc6S
# Outline: as §1
# Gal3S(b1-4)GlcNAc = molecular target: Gal3S(b1-4)GlcNAc
# Outline: as §1
# Gal3S(b1-4)GlcNAc6S = molecular target: Gal3S(b1-4)GlcNAc6S
# Outline: as §1
# Gal3S6S(b1-4)GlcNAc = molecular target: Gal3S6S(b1-4)GlcNAc
# Outline: as §1
# Gal3S6S(b1-4)GlcNAc6S = molecular target: Gal3S6S(b1-4)GlcNAc6S
# Outline: as §1
# Gal4S(b1-4)GlcNAc = molecular target: Gal4S(b1-4)GlcNAc
# Outline: as §1
# Gal4S6S(b1-4)GlcNAc = molecular target: Gal4S6S(b1-4)GlcNAc
# Outline: as §1
# Gal6S(b1-4)Glc = molecular target: Gal6S(b1-4)Glc
# Outline: as §1
# Gal6S(b1-4)Glc6S = molecular target: Gal6S(b1-4)Glc6S
# Outline: as §1
# Gal6S(b1-4)GlcNAc = molecular target: Gal6S(b1-4)GlcNAc
# Outline: as §1
# GalNAc(a1-3)Gal = molecular target: GalNAc(a1-3)Gal
# Outline: as §1
# GalNAc(a1-3)GalNAc = molecular target: GalNAc(a1-3)GalNAc
# Outline: as §1
# [5] = molecular target: GalNAc(b1-3)Gal(a1-4)Gal(b1-4)GlcNAc
# Outline: as §1
# GalNAc(b1-4)GlcNAc = molecular target: GalNAc(b1-4)GlcNAc
# Outline: as §1
# Glc(a1-4)Glc = molecular target: Glc(a1-4)Glc
# Outline: as §1
# Glc(a1-6)Glc(a1-6)Glc = molecular target: Glc(a1-6)Glc(a1-6)Glc
# Outline: as §1
# Glc(b1-4)Glc = molecular target: Glc(b1-4)Glc
# Outline: as §1
# Glc(b1-6)Glc = molecular target: Glc(b1-6)Glc
# Outline: as §1
# GlcA(b1-3)Gal = molecular target: GlcA(b1-3)Gal
# Outline: as §1
# GlcA(b1-6)Gal = molecular target: GlcA(b1-6)Gal
# Outline: as §1
# [6] = molecular target: GlcNAc(a1-3)Gal(b1-4)GlcNAc
# Outline: as §1
# [7] = molecular target: GlcNAc(a1-6)Gal(b1-4)GlcNAc
# Outline: as §1
# [8] = molecular target: GlcNAc(b1-2)Gal(b1-3)GlcNAc
# Outline: as §1
# [9] = molecular target: GlcNAc(b1-2)Man(a1-3)[GlcNAc(b1-2)Man(a1-6)]Man(b1-4)GlcNAc(b1-4)GlcNAc
# Outline: as §1
# GlcNAc(b1-3)Gal = molecular target: GlcNAc(b1-3)Gal
# Outline: as §1
# [10] = molecular target: GlcNAc(b1-3)Gal(b1-3)GalNAc
# Outline: as §1
# GlcNAc(b1-3)Gal(b1-4)Glc = molecular target: GlcNAc(b1-3)Gal(b1-4)Glc
# Outline: as §1
# [11] = molecular target: GlcNAc(b1-3)Gal(b1-4)GlcNAc
# Outline: as §1
# [12] = molecular target: GlcNAc(b1-3)Gal(b1-4)GlcNAc(b1-3)Gal(b1-4)GlcNAc
# Outline: as §1
# GlcNAc(b1-3)GalNAc = molecular target: GlcNAc(b1-3)GalNAc
# Outline: as §1
# [13] = molecular target: GlcNAc(b1-3)[GlcNAc(b1-4)][GlcNAc(b1-6)]GlcNAc
# Outline: as §1
# [14] = molecular target: GlcNAc(b1-3)[GlcNAc(b1-6)]Gal(b1-4)GlcNAc
# Outline: as §1
# [15] = molecular target: GlcNAc(b1-3)[GlcNAc(b1-6)]GlcNAc
# Outline: as §1
# [16] = molecular target: GlcNAc(b1-4)Gal(b1-4)GlcNAc
# Outline: as §1
# [17] = molecular target: GlcNAc(b1-4)GlcNAc(b1-4)GlcNAc
# Outline: as §1
# [18] = molecular target: GlcNAc(b1-4)GlcNAc(b1-4)GlcNAc(b1-4)GlcNAc(b1-4)GlcNAc
# Outline: as §1
# [19] = molecular target: GlcNAc(b1-4)GlcNAc(b1-4)GlcNAc(b1-4)GlcNAc(b1-4)GlcNAc(b1-4)GlcNAc
# Outline: as §1
# [20] = molecular target: GlcNAc(b1-4)[GlcNAc(b1-6)]GalNAc
# Outline: as §1
# [21] = molecular target: GlcNAc(b1-6)Gal(b1-4)GlcNAc
# Outline: as §1
# GlcNAc(b1-6)GalNAc = molecular target: GlcNAc(b1-6)GalNAc
# Outline: as §1
# Kdn(a2-3)Gal(b1-3)GlcNAc = molecular target: Kdn(a2-3)Gal(b1-3)GlcNAc
# Outline: as §1
# Kdn(a2-3)Gal(b1-4)GlcNAc = molecular target: Kdn(a2-3)Gal(b1-4)GlcNAc
# Outline: as §1
# [22] = molecular target: Man(a1-2)Man(a1-2)Man(a1-3)Man
# Outline: as §1
# [23] = molecular target: Man(a1-2)Man(a1-2)Man(a1-3)[Man(a1-2)Man(a1-3)[Man(a1-2)Man(a1-6)]Man(a1-6)]Man(b1-4)GlcNAc(b1-4)GlcNAc
# Outline: as §1
# [24] = molecular target: Man(a1-2)Man(a1-2)Man(a1-3)[Man(a1-2)Man(a1-6)[Man(a1-3)]Man(a1-6)]Man(b1-4)GlcNAc(b1-4)GlcNAc
# Outline: as §1
# [25] = molecular target: Man(a1-2)Man(a1-2)Man(a1-6)[Man(a1-3)]Man
# Outline: as §1
# Man(a1-2)Man(a1-3)Man = molecular target: Man(a1-2)Man(a1-3)Man
# Outline: as §1
# [26] = molecular target: Man(a1-2)Man(a1-3)[Man(a1-2)Man(a1-6)]Man
# Outline: as §1
# [27] = molecular target: Man(a1-2)Man(a1-3)[Man(a1-3)[Man(a1-6)]Man(a1-6)]Man(b1-4)GlcNAc(b1-4)GlcNAc
# Outline: as §1
# [28] = molecular target: Man(a1-2)Man(a1-3)[Man(a1-6)]Man(a1-6)[Man(a1-2)Man(a1-3)]Man(b1-4)GlcNAc(b1-4)GlcNAc
# Outline: as §1
# Man(a1-3)[Man(a1-6)]Man = molecular target: Man(a1-3)[Man(a1-6)]Man
# Outline: as §1
binder,measurement,setting,value
B1,glycan array binding signal (z-score),[1],-0.429
same,glycan array binding signal (z-score),[2],-0.506
same,glycan array binding signal (z-score),[3],0.078
same,glycan array binding signal (z-score),Gal3S(b1-3)GalNAc,-0.31
same,glycan array binding signal (z-score),Gal3S(b1-3)GlcNAc,-0.098
same,glycan array binding signal (z-score),[4],-0.166
same,glycan array binding signal (z-score),Gal3S(b1-4)Glc,0.102
same,glycan array binding signal (z-score),Gal3S(b1-4)Glc6S,1.16
same,glycan array binding signal (z-score),Gal3S(b1-4)GlcNAc,0.355
same,glycan array binding signal (z-score),Gal3S(b1-4)GlcNAc6S,0.663
same,glycan array binding signal (z-score),Gal3S6S(b1-4)GlcNAc,0.26
same,glycan array binding signal (z-score),Gal3S6S(b1-4)GlcNAc6S,12.3
same,glycan array binding signal (z-score),Gal4S(b1-4)GlcNAc,-0.327
same,glycan array binding signal (z-score),Gal4S6S(b1-4)GlcNAc,0.308
same,glycan array binding signal (z-score),Gal6S(b1-4)Glc,0.181
same,glycan array binding signal (z-score),Gal6S(b1-4)Glc6S,1.65
same,glycan array binding signal (z-score),Gal6S(b1-4)GlcNAc,-0.109
same,glycan array binding signal (z-score),GalNAc(a1-3)Gal,-0.288
same,glycan array binding signal (z-score),GalNAc(a1-3)GalNAc,0.049
same,glycan array binding signal (z-score),[5],-0.304
same,glycan array binding signal (z-score),GalNAc(b1-4)GlcNAc,-0.229
same,glycan array binding signal (z-score),Glc(a1-4)Glc,-0.148
same,glycan array binding signal (z-score),Glc(a1-6)Glc(a1-6)Glc,-0.065
same,glycan array binding signal (z-score),Glc(b1-4)Glc,-0.219
same,glycan array binding signal (z-score),Glc(b1-6)Glc,0.397
same,glycan array binding signal (z-score),GlcA(b1-3)Gal,-0.225
same,glycan array binding signal (z-score),GlcA(b1-6)Gal,-0.252
same,glycan array binding signal (z-score),[6],0.153
same,glycan array binding signal (z-score),[7],-0.144
same,glycan array binding signal (z-score),[8],-0.386
same,glycan array binding signal (z-score),[9],-0.189
same,glycan array binding signal (z-score),GlcNAc(b1-3)Gal,-0.177
same,glycan array binding signal (z-score),[10],-0.296
same,glycan array binding signal (z-score),GlcNAc(b1-3)Gal(b1-4)Glc,-0.246
same,glycan array binding signal (z-score),[11],-0.275
same,glycan array binding signal (z-score),[12],-0.33
same,glycan array binding signal (z-score),GlcNAc(b1-3)GalNAc,0.039
same,glycan array binding signal (z-score),[13],0.419
same,glycan array binding signal (z-score),[14],-0.325
same,glycan array binding signal (z-score),[15],0.142
same,glycan array binding signal (z-score),[16],0.103
same,glycan array binding signal (z-score),[17],-0.42
same,glycan array binding signal (z-score),[18],-0.406
same,glycan array binding signal (z-score),[19],-0.437
same,glycan array binding signal (z-score),[20],0.468
same,glycan array binding signal (z-score),[21],-0.269
same,glycan array binding signal (z-score),GlcNAc(b1-6)GalNAc,-0.327
same,glycan array binding signal (z-score),Kdn(a2-3)Gal(b1-3)GlcNAc,-0.394
same,glycan array binding signal (z-score),Kdn(a2-3)Gal(b1-4)GlcNAc,-0.399
same,glycan array binding signal (z-score),[22],-0.005
same,glycan array binding signal (z-score),[23],-0.515
same,glycan array binding signal (z-score),[24],-0.509
same,glycan array binding signal (z-score),[25],-0.204
same,glycan array binding signal (z-score),Man(a1-2)Man(a1-3)Man,-0.124
same,glycan array binding signal (z-score),[26],-0.196
same,glycan array binding signal (z-score),[27],-0.392
same,glycan array binding signal (z-score),[28],-0.435
same,glycan array binding signal (z-score),Man(a1-3)[Man(a1-6)]Man,-0.105
